From PubChem BioAssay AID2546 (National Center for Advancing Translational Sciences (NCATS), 2010)
“And” between values parts separate entries of the source, which are not always exact repeats. Equal entries are not always repeated. The whole screen tested about 310,000 compounds, of which about 11,000 (3.5%) were called active. Inconclusive results, whose numbers are uncertain, are shown with a selection of clear calls. Calls follow the shape of the dose curve; as a rule, active = well fitted inhibition curve with a large enough effect; inconclusive = small, poorly fitted or top-dose-only effect, or effect the other way; inactive = flat fitted curve, though single readings scatter. Where the call is inconclusive, the potency comes from a doubtful curve fit. More than one record can exist for a structure, and the calls need not agree.
Potency is read from the fitted curve at half-maximal effect; tags tell the direction and shape of the fitted curve.

Assay: VP16 counterscreen qHTS for inhibitors of ROR gamma transcriptional activity;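 also: Gal4-VP16 expression switched on by copper sulfate through the metallothionein promoter; nearly all actives have a fitted effect of over 50% in size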
Settings: Drosophila S2 Gal4-VP16 UAS-luciferase, luminescence, 20 h; series mostly up to 53.6 µM
In the case of `COc1ccc(-n2nc(C(=O)NCC(=O)N3CCC4(CC3)OCCO4)c3ccccc3c2=O)cc1Cl`, the Potency is reported as inconclusive: 15.8 µM [inhibitor, partial curve].
For `COc1ccc(C[C@H]2NC[C@H](O)[C@@H]2OC(C)=O)cc1`, the Potency was active: 35.5 µM.
With `COC(C(=O)C(O)C(C)O)C1Cc2cc3cc(OC4CC(OC5CC(O)C(OC)C(C)O5)C(OC(C)=O)C(C)O4)c(C)c(O)c3c(O)c2C(=O)C1OC1CC(OC2CC(OC3CC(C)(O)C(OC(C)=O)C(C)O3)C(O)C(C)O2)C(O)C(C)O1` (stereo not given) the Potency was active: 1 µM.
With `[N-]=[N+]=NCCN1CCC(O)CCC1=O` (stereo not given) the Potency was “inactive”.
In the case of `Cc1nn(Cc2ccccc2)c(Cl)c1C(=O)Nc1ccc(OC(F)(F)F)cc1`, the Potency is reported as inconclusive: 35.5 µM [inhibitor, single point].
For `O=C(Nc1cccc(Br)c1)c1c(O)c2c(n(Cc3ccccc3)c1=O)CCCC2`, the Potency was “inactive”.
For `Cc1ccccc1C(=O)NC(Oc1ccccc1)C(Cl)(Cl)Cl` (stereo not given), the Potency was inconclusive: 22.4 µM [inhibitor, single point].
In the case of `C[C@@H]1O[C@H](O[C@@H]2C[C@@H](O)[C@]3(CO)[C@H]4[C@H](O)C[C@]5(C)[C@@H](C6=CC(=O)OC6)CC[C@@]5(O)[C@@H]4CC[C@]3(O)C2)[C@@H](O)[C@H](O)[C@H]1O`, the Potency is reported as “inactive”.
For `CC/C(=N\NC(=O)c1ccccc1)c1c(O)n(C2CCCCC2)c(=O)[nH]c1=O`, the Potency was inconclusive: 35.5 µM [inhibitor, single point].
In the case of `CC(=O)c1cn(CC(=O)NCCc2c[nH]c3ccccc23)c2ccccc12`, the Potency is reported as inconclusive: 22.4 µM [inhibitor, single point].
For `O=C(Cc1ccccc1)N1CCN(C2CCCC2)CC1`, the Potency was “inactive”.
For `C=CCn1c(O)c(C(CC)=Nc2ccc(N(CC)CC)cc2)c(=O)[nH]c1=O`, the Potency was inconclusive: 17.8 µM [activator, single point].
With `CN(C)C(=O)Oc1ccc2c(c1)O/C(=C\c1ccccc1)C2=O` the Potency was inconclusive: 5.01 µM [activator, partial curve].
For `Nc1c2c(nc3sc4c(c13)CCCCC4)CCCC2`, the Potency was inconclusive: 5.62 µM [activator, single point].
In the case of `C=Cn1ccnc1P(O)(=S)c1nc(C)c(CCOC(C)=O)s1` (stereo not given), the Potency is reported as inconclusive: 35.5 µM [inhibitor, single point].
In the case of `CN1C(=O)C(=Cc2ccc(OCC(=O)Nc3ccccc3)cc2)C(=O)N(C)C1=O`, the Potency is reported as “inactive”.
For `O=C1NC(=O)N(c2ccccc2)C(=O)/C1=C/C=C/c1ccco1`, the Potency was inconclusive: 25.1 µM [inhibitor, single point].
With `CCON=O` the Potency was “inactive”.
For `COc1nc(NC(C)C)nc(N(C#N)CN2C(=O)c3ccccc3S2(=O)=O)n1`, the Potency was inconclusive: 35.5 µM [inhibitor, single point].
For `CC(=O)Oc1ccccc1C(=O)Nc1ncc([N+](=O)[O-])s1`, the Potency was inconclusive: 20 µM [inhibitor, single point] and inconclusive: 2.82 µM [inhibitor, single point].
For `C=C(C)CSc1nnc([C@@H](N)Cc2c[nH]c3ccccc23)o1`, the Potency was inconclusive: 35.5 µM [inhibitor, single point].
For `O=C1c2ccccc2C(=O)N1Cc1nc2ccccc2c(=O)n1-c1ccccn1`, the Potency was “inactive”.
In the case of `CCC(=NCCc1ccccc1)c1c(O)n(C)c(=O)n(C)c1=O`, the Potency is reported as inconclusive: 35.5 µM [inhibitor, single point].
For `CCCCn1c(=O)c(C(=O)Nc2ccccc2S(N)(=O)=O)c(O)c2ccccc21`, the Potency was inconclusive: 20 µM [inhibitor, single point].
In the case of `COC(=O)C(O)(c1ccc(NC(=S)NC(=O)c2ccccc2)cc1)C(F)(F)F` (stereo not given), the Potency is reported as inconclusive: 35.5 µM [inhibitor, single point].
In the case of `CCCCc1ccc2[nH]cc(CCN)c2c1`, the Potency is reported as “inactive”.
For `COC(=O)C1=Nc2ccccc2/C1=C\c1c(O)n(C)c(=O)n(C)c1=O`, the Potency was “inactive”.
With `CC(=O)Oc1c2c(c(CC=C(C)C)c3c1C(=O)C1=CC4CC5C(C)(C)OC(C/C=C(\C)C(=O)O)(C4=O)[C@]15O3)OC(C)(CCC=C(C)C)C=C2` (stereo not given in full) the Potency was inconclusive: 5.01 µM [inhibitor, partial curve].
With `O=C(Nc1ccc(Cl)cc1C(=O)c1ccccc1Cl)c1ccco1` the Potency was “inactive”.
For `CC(=O)O[C@H]1C[C@H](O[C@H]2[C@@H](O)CC(O[C@H]3[C@@H](O)C[C@H](O[C@H]4CC[C@@]5(C)[C@H](CC[C@@H]6[C@@H]5CC[C@]5(C)[C@@H](C7=CC(=O)OC7)CC[C@]65O)C4)O[C@@H]3C)O[C@@H]2C)O[C@H](C)[C@H]1O[C@@H]1O[C@H](CO)[C@@H](O)[C@H](O)[C@H]1O` (stereo not given in full), the Potency was “inactive”.
For `O=C(N/N=C/c1c(O)n(C2CCCCC2)c(=S)[nH]c1=O)c1ccccc1O`, the Potency was active: 3.16 µM.
With `Cc1cc(C(=O)Nc2ccc(CC(=O)O)cc2)c(C)o1` the Potency was inconclusive: 11.2 µM [inhibitor, partial curve].
With `O=C(Nc1ccc(Cl)cc1)Nc1ccc(Cl)c(Cl)c1` the Potency was inconclusive: 35.5 µM [inhibitor, single point].
With `O=C(Nc1ccc2nc(-c3cccs3)c(-c3cccs3)nc2c1)NC1CC1` the Potency was inconclusive: 3.16 µM [inhibitor, single point].
In the case of `Cc1nn(C(C)(C)C)c(C)c1/C=N/OC(=O)Nc1ccc(Cl)cc1`, the Potency is reported as inconclusive: 5.62 µM [inhibitor, partial curve, poor fit].
With `CCS(=O)(=O)N1CCCC(C(=O)N2CCC3(CC2)OCCO3)C1` (stereo not given) the Potency was “inactive”.
For `Cc1nc2c(=O)n(C)c(=O)nc-2n(C)n1`, the Potency was active: 3.55 µM.
With `CCCCn1c(=O)c(C(=O)NCc2ccncc2)c(O)c2ccccc21` the Potency was inconclusive: 25.1 µM [inhibitor, single point].
With `CC(=O)OC1CC(OC2C(O)CC(OC3C(O)CC(OC4CCC5(C)C(CCC6C5CC(O)C5(C)C(C7=CC(=O)OC7)CCC65O)C4)OC3C)OC2C)OC(C)C1OC1OC(CO)C(O)C(O)C1O` (stereo not given) the Potency was inconclusive: 7.08 µM [inhibitor, partial curve].
In the case of `O=C1C(=O)c2ccccc2-c2ccccc21`, the Potency is reported as active: 3.16 µM.
For `CCOCCCn1c(N)c(C(=O)Nc2sc3c(c2C(=O)OC)CCCC3)c2nc3ccccc3nc21`, the Potency was active: 11.2 µM.
In the case of `Fc1ccccc1-c1n[nH]c(=S)n1Cc1ccccc1`, the Potency is reported as active: 11.2 µM.
In the case of `C=C1C(=O)O[C@@H]2C[C@@H](C)[C@@H]3C=CC(=O)[C@@]3(C)[C@@H](OC(=O)CC(=O)O[C@H]3[C@@H]4C(=C)C(=O)O[C@@H]4C[C@@H](C)[C@@H]4C=CC(=O)[C@]43C)[C@H]12`, the Potency is reported as active: 0.631 µM.
With `O=c1[nH]c(=S)[nH]c(O)c1N=Nc1ccc(SC(F)F)cc1` the Potency was inconclusive: 17.8 µM [inhibitor, single point].
With `O=C(Nc1ccc(Cl)c(Cl)c1)c1ccco1` the Potency was inconclusive: 5.01 µM [activator, full curve].
For `O=c1[nH]c(=O)n(CCC2=CCCCC2)c(O)c1/C=N/Nc1ccccc1`, the Potency was active: 20 µM.
With `Cn1nc(-c2ccc(OCC(=O)N3CCN(Cc4ccccc4)CC3)cc2)c2ccccc2c1=O` the Potency was inconclusive: 14.1 µM [inhibitor, single point].
In the case of `CCC(C)n1c(O)c(C=NCc2cccnc2)c(=O)[nH]c1=S` (stereo not given), the Potency is reported as inconclusive: 15.8 µM [inhibitor, single point].
With `CCC(C)(C)O` the Potency was “inactive”.
For `CN1C(=O)N(C)C(=O)C2(Cc3cc(NC(=O)c4ccc(F)cc4)ccc3N3CCCC32)C1=O` (stereo not given), the Potency was “inactive”.
For `C=C(C)Cn1c(=O)n(CC2CS2)c2ccccc21` (stereo not given), the Potency was inconclusive: 5.62 µM [activator, single point].
With `COc1cc2c(cc1OC)[C@@H]1C(=O)c3ccc4oc(C(C)C)cc4c3OC1CO2` (stereo not given in full) the Potency was active: 0.316 µM.
In the case of `COc1ccc(CN2CCN(C(=O)Cn3c(=O)oc4cc(Cl)ccc43)CC2)c(OC)c1OC`, the Potency is reported as inconclusive: 11.2 µM [inhibitor, partial curve].
For `O=C1C=CC(=O)c2c1ccc1c2ccc2ccccc21`, the Potency was inconclusive: 14.1 µM [inhibitor, single point].
With `CN(C)C(=S)SSC(=S)N(C)C` the Potency was “inactive and active: 891 nM and active: 1 µM”.
In the case of `Cc1cc(C=C2C(=O)NC(=S)NC2=O)c(C)n1-c1ccc2c(c1)OCO2`, the Potency is reported as inconclusive: 35.5 µM [inhibitor, single point].
For `CN(C)c1ccc(N(C)C)cc1`, the Potency was inconclusive: 31.6 µM [inhibitor, single point].
With `O=[N+]([O-])/C=C/c1ccccc1` the Potency was inconclusive: 35.5 µM [inhibitor, single point].
With `CC(C)C(=O)N1CCC(CN=Cc2c(O)n(C3CCCCC3)c(=O)n(C3CCCCC3)c2=O)CC1` the Potency was inconclusive: 35.5 µM [inhibitor, single point].
For `CCc1ccc(N2C(=O)NC(=O)/C(=C\c3cccn3CCOc3ccc(C(C)C)cc3)C2=O)cc1`, the Potency was active: 0.398 µM.
For `CCCCn1c(=O)c(C(=O)Nc2ncccc2C)c(O)c2ccccc21`, the Potency was inconclusive: 20 µM [inhibitor, single point].
With `N#CC(C#N)=Cc1ccc(C=C(C#N)C#N)cc1` the Potency was inconclusive: 35.5 µM [inhibitor, single point].
For `Cc1cccc(CN2CCCC(C(=O)c3ccc4c(c3)OCO4)C2)n1` (stereo not given), the Potency was active: 12.6 µM.
For `CN(C)C(=O)Oc1ccc(-c2cn3cc(Cl)ccc3n2)cc1`, the Potency was inconclusive: 14.1 µM [inhibitor, partial curve].
For `CCC(=NCc1ccc2c(c1)OCO2)c1c(O)n(C)c(=O)n(C)c1=O`, the Potency was inconclusive: 35.5 µM [inhibitor, single point].
